# According to publication PMC4336329 (PLoS ONE, 2015):
# About 2,200 (0.71%) of roughly 310,000 compounds showed an effect of 50% or more. Effects have a minus sign here. The list shows a part of the results.
# Molecular target: human ether-à-go-go-related gene (hERG) potassium channel (human, UniProt Q12809)
# Assay: primary screen, population patch clamp on CHO cells stably expressing hERG
# Sequence of human ether-à-go-go-related gene (hERG) potassium channel (Q12809 whole entry, looked up): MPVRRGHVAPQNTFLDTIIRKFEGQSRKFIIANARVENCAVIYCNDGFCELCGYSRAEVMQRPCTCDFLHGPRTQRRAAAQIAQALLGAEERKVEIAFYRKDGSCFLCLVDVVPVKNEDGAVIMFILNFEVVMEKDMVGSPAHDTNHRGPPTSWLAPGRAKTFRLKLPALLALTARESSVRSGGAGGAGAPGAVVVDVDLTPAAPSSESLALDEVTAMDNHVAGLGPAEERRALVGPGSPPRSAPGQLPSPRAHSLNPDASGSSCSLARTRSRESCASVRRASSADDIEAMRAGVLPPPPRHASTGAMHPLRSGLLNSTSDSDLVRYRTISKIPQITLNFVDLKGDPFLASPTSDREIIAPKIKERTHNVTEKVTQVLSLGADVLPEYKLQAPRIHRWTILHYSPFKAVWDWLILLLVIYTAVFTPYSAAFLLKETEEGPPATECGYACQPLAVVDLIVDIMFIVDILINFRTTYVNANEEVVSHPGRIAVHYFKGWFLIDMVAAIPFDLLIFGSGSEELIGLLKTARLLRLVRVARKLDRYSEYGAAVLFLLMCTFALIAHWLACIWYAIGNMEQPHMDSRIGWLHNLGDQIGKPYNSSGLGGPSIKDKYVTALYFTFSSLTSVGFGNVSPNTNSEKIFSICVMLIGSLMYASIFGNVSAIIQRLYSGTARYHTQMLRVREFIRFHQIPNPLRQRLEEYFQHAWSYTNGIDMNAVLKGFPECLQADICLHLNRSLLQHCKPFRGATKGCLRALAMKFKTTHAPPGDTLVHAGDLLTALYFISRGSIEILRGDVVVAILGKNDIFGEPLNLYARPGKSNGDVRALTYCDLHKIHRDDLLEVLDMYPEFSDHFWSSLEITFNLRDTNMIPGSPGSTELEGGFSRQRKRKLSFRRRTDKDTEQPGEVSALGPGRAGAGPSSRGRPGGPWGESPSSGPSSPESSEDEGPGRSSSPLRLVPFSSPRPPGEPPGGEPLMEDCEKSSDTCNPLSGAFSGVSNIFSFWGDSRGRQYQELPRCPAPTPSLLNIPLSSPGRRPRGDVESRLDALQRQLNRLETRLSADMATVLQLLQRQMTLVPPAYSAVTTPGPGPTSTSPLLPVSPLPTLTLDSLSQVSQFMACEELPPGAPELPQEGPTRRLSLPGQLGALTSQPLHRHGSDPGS
row,Compound,"hERG current change (%, negative = inhibition) at 1uM [%]"
1,CCN(CC(=O)NCc1cccs1)C(=O)c1ccccc1Cl,1.38
2,O=C(NCCCNc1ccc(C(F)(F)F)cc1[N+](=O)[O-])c1ccc(F)cc1,0.812
3,O=C1CSC(=Nc2cccc(Cl)c2Cl)N1Cc1cccnc1,1.66
4,CC(C)CNC(=O)CN1C(=O)NC2(CCCc3ccccc32)C1=O (stereo not shown),9.2
5,O=c1c2cn[nH]c2[nH]c(=S)n1-c1ccccc1,14.3
6,COC(=O)CC(C(=O)Nc1cc(C(=O)OC)cc(C(=O)OC)c1)N1CCN(C)CC1 (stereo not shown),17.1
7,COc1ccc(S(=O)(=O)N(C)C(C)CCc2ccco2)cc1 (stereo not shown),5.09
8,COc1ccc(C(O)Cn2c(=N)n(CCCN(C)C)c3ccccc32)cc1.Cl (stereo not shown),2.15
9,COc1cccc(OC)c1C(=O)Nc1cc(Cl)ccc1N1CCOCC1,2.33
10,O=C1C=C(c2cc3ccccc3o2)C[C@@H](c2ccc(F)cc2)C1,5.22
11,O=C(Nc1ccc2c(c1)OCCO2)c1cccc2nc3ccccc3nc12,14.7
12,CCc1noc(C)c1C(=O)NNC(=O)COc1ccc(C)cc1,9.88
13,COCCN(C(=O)CCC(=O)Nc1ccccn1)C(C(=O)NC(C)(C)C)c1ccc(OC)cc1 (stereo not shown),16.5
14,O=C(CSc1nc(C2CCCCC2)nc2ccccc12)N1CCCC1,5.28
15,COc1cc(/C=N/N=C2\CC3CCC2(C)C3(C)C)ccc1O (stereo not shown),11.7
16,CCCn1c(C)cc(/C=C(\C#N)C(=O)OCC(=O)Nc2cc(OC)c(OC)c(OC)c2)c1C,3.06
17,CCOC(=O)CNC(=O)Cn1c(C)cc2ccccc2c1=O,20.1
18,Cc1ccc(N(C)C(=O)Oc2ccc(C(=O)c3ccc(Cl)cc3)cc2)cc1,9.2
19,COc1cc(OC)nc(Oc2ccc(N)c(C)c2)n1,5.07
20,CC(=O)N1CSCC1C(=O)NNS(=O)(=O)c1cccc(C(F)(F)F)c1 (stereo not shown),11.9
21,C=CCNC(=O)c1c(CSc2ccc(Cl)cc2)noc1C(=O)NCCC,3.31
22,Cc1ccc(-c2nn(-c3ccccn3)c(=O)c3ccccc23)cc1C,5.79
23,COc1ccc(-c2c(C)n([O-])c3c([n+]2=O)CCC3)cc1OC,9.66
24,CCn1c(Oc2ccccc2)nc2c1c(=O)n(C)c(=O)n2C,11.7
25,COc1ccc(C(=O)NNC(=O)Cc2nc3nc(C)cc(C)n3n2)cc1,13.9
